Reference: PubChem BioAssay AID588579 (National Center for Advancing Translational Sciences (NCATS), 2011)
In all, about 400,000 compounds went through this assay and about 2,200 (0.55%) were called active. Roughly 1% stayed inconclusive and do not appear here. The call rests on the fitted dose curve; in most records, active means well fitted inhibition curve with a large enough effect; inconclusive means small, poorly fitted or top-dose-only effect, or another doubt; inactive means no such curve, though single readings can be large or run the other way. Only a part is listed here, and it is no random draw.

Molecular target: DNA polymerase kappa (Homo sapiens) (UniProt Q9UBT6)
Chain of UniProt Q9UBT6 (Q9UBT6 whole entry, looked up): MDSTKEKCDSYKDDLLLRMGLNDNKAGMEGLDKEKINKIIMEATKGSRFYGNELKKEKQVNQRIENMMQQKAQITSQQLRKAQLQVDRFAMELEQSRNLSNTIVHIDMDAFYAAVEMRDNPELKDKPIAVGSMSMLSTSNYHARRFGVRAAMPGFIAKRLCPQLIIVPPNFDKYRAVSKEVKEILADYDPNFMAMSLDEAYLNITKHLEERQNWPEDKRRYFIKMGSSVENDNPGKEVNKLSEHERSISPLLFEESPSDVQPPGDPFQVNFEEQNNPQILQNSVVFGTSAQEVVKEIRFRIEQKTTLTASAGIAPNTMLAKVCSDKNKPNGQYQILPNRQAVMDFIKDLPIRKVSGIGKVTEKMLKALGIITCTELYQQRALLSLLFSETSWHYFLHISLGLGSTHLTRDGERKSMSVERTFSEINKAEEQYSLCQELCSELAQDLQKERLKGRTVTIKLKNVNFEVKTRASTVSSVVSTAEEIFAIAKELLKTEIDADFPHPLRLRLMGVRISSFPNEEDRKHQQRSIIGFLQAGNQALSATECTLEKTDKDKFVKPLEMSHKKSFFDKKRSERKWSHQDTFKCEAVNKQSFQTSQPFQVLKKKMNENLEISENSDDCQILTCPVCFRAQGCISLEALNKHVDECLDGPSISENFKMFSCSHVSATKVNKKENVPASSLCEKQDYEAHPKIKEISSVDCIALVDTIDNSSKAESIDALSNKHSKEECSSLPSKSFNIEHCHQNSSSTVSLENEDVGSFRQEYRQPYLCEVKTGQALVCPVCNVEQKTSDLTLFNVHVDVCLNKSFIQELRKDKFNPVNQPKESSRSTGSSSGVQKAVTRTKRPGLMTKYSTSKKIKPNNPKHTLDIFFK
Assay: qHTS for Inhibitors of Polymerase Kappa
Details: purified Pol kappa, fluorescent DNA synthesis assay, 10 min; series mostly up to 107 µM; activity, negative = inhibition: at the top concentration
Description: The processing and repair of DNA interstrand crosslinks (ICL) in eukaryotic cells are extremely complex, potentially involving multiple DNA repair and damage tolerance pathways, including homologous recombination, nucleotide excision repair, translesion synthesis (TLS), and cell cycle checkpoints.
To that end, in a collaboration between the Oregon Health & Science University and the NIH Chemical Genomics Center a 1536-well high-throughput screen was developed. This fluorescent screen was assayed against the NIH Molecular Libraries Small Molecule Repository (MLSMR) to discover inhibitors of Pol Kappa.
NIH Chemical Genomics Center [NCGC]
NIH Molecular Libraries Probe Centers Network [MLPCN]
Assay Submitter (PI): Stephen Lloyd, Oregon Health & Science University
Three microliters of reagents (buffer in column 3 and 4 as negative control and 10 nM Pol kappa in columns 1, 2, and 5-48) were dispensed into a 1536-well black solid-bottom plate. Compounds (23 nL) were transferred via Kalypsys pin tool equipped with 1536-pin array. The plates were then incubated for 15 min at room temperature, and 1 uL substrate (50 nM final concentration) were then added to start the reaction and kinetically read twice at 0 min and 10 min on the Viewlux reader
On the % scale 0 is the no-effect control and ±100 the full control effect; potency means the concentration at half of the fitted maximal effect.

Compound | Potency | activity, negative = inhibition
Cc1oc(-c2ccc(F)cc2)cc1-c1nn2c(-c3ccoc3C)nnc2s1 | active: 28.2 µM | –
CC(=O)C1(O)CCC2C3CC(C)C4=CC(=O)C=CC4(C)C3(F)C(O)CC21C (stereo unspecified) | – | inactive: -12.6%
CCn1c(SCC(=O)c2ccc(O)c(O)c2)nnc1-c1ccc(C)cc1 | active: 28.2 µM | –
CN(C)C(=O)Nc1ccccc1 | inactive | –
O=C(/C=C/c1ccco1)Oc1cccc2cccnc12 | – | inactive: -9.76%
Clc1ccc(C[n+]2cc(-c3ccccc3)n3c2CCCCC3)c(Cl)c1 | inactive | –
NC12CC3CC(CC(C3)C1)C2 | inactive | –
CCN(c1ccc(OC)cc1)S(=O)(=O)c1nnc(NC(=O)COc2ccc(F)cc2)s1 | – | inactive: 1.16%
CC(C)(C)OC(=O)N1CCC[C@@H]1CO | inactive | –
O=c1cc(-c2ccc(O)cc2)oc2c(C3OCC(O)C(O)C3O)c(O)c(C3OC(CO)C(O)C(O)C3O)c(O)c12 (stereo unspecified) | active: 50.1 µM | –
Cc1cccc(CN2C[C@]34CC[C@@H](C[C@@H]3S2(=O)=O)O4)c1 | – | inactive: -5.04%
COc1ccc(/C=C/C(=O)CC(=O)/C=C/c2cccc(O)c2OC)cc1O | – | inactive: -8.75% [at 19.4 µM]
NCCCCNCCCN | inactive | –
Cc1ccc(CCNC(=O)c2c3c(nc4ccccc24)C(=O)N(C2CCCCC2)C3)cc1 | – | inactive: 22.8%
N[C@H](CO)C(=O)O | inactive | –
COc1ccc(-c2nc(SCC(=O)Nc3ccc4c(c3)OCCO4)c(-c3ccc(F)cc3)[nH]2)cc1OC | – | inactive: 45.1%
O=c1cc(N2CCOCC2)oc2c1ccc1ccccc12 | – | inactive: 18.2% [at 60.1 µM]
CCOC(=O)C(CCc1ccccc1)NC(C)C(=O)N1Cc2cc(OC)c(OC)cc2CC1C(=O)O (stereo unspecified) | – | inactive: 16.1% [at 60.1 µM]
CN(Cc1ccco1)S(=O)(=O)c1nnc(NC(=O)c2ccccc2)s1 | – | inactive: 5.28%

Compound | Potency | activity, negative = inhibition
C[C@@H]1[C@H](O)[C@@H](C)/C=C/C=C/C=C/C=C/C=C/C=C/C=C/[C@H](O[C@@H]2O[C@H](C)[C@@H](O)[C@H](N)[C@@H]2O)C[C@@H]2O[C@](O)(C[C@@H](O)C[C@@H](O)[C@H](O)CC[C@@H](O)C[C@@H](O)CC(=O)O[C@H]1C)C[C@H](O)[C@H]2C(=O)O | – | inactive: -15.4% [at 60.1 µM]
CC(O)CC(=O)O (stereo unspecified) | – | inactive: -2.89%
COc1ccc(N2CCN(C(=O)Cc3ccc(S(=O)(=O)N4CCOCC4)s3)CC2)cc1 | active: 79.4 µM | –
C[C@]12CC[C@@H]3c4ccc(O)cc4CC[C@H]3[C@@H]1CC[C@@H]2OC(=O)CCC1CCCC1 | – | inactive: 0.386%
CN1CCN(C2=Cc3ccccc3Oc3ccc(Cl)cc32)CC1 | – | inactive: 1.43% [at 19.4 µM]
N=C(C[C@@H](O)COc1ccccc1-c1ccccc1)N1CCCCC1 | – | inactive: -7.46% [at 19.4 µM]
Oc1ccc(C[C@@H]2CNCCN2CCc2cc(C(F)(F)F)cc(C(F)(F)F)c2)cc1 | – | inactive: -12.6%
COC(=O)[C@H]1C2CC3c4[nH]c5ccccc5c4CCN3CC2CC[C@@H]1O (stereo partly specified) | – | inactive: -0.321% [at 19.4 µM]
CCC(Cc1c(I)cc(I)c(N)c1I)C(=O)O (stereo unspecified) | inactive | –
OCC1=C[C@@H](O)[C@@H]2C=CO[C@@H](O[C@@H]3O[C@H](CO)[C@@H](O)[C@H](O)[C@H]3O)[C@H]12 | – | inactive: -16.9%
O=c1ccc2ccccc2[nH]1 | – | inactive: 13% [at 60.1 µM]
H-HSDAIFTQQYSKLLAKLALQKYLASILGSRTSPPP-NH2 | – | inactive: 11.6% [at 60.1 µM]
CCOC(=O)C1=C(O)/C(=C\c2ccc(CNS(=O)(=O)c3ccc(Br)cc3)o2)N=C1C | active: 50.1 µM | –
Cc1cc(C)cc(NC(=O)C2CCCN2S(=O)(=O)c2ccc3c(c2)C(C)(C)C(=O)N3C)c1 (stereo unspecified) | – | inactive: -5.66%
CC(=O)Nc1ccc(S(=O)(=O)O)c2cc(S(=O)(=O)O)c(N=Nc3ccc(N=Nc4ccc(S(=O)(=O)O)cc4)c4ccc(S(=O)(=O)O)cc34)c(O)c12 | active: 1.41 µM | –
CC(=O)NO | – | inactive: 2.36%
O=C1ON=C(c2ccccc2)/C1=C/c1ccco1 | active: 28.2 µM | –
CC(=O)N[C@@H](CC(=O)O)C(=O)O | – | inactive: -5.11% [at 12 µM]
CCCCCCCCCCC[C@@H](C[C@@H]1OC(=O)[C@H]1CCCCCC)OC(=O)[C@H](CC(C)C)NC=O | – | inactive: -0.356%

Compound | Potency | activity, negative = inhibition
Cc1cc(C(=O)O)ccc1-c1ccc(/C=C2\NC(=O)N(Cc3ccc(F)cc3)C2=O)o1 | active: 28.2 µM | –
C=C1C(=O)O[C@@H]2[C@H]3O[C@]3(C)CC/C=C(\C)CC[C@@H]12 | inactive | –
C[C@H]1CCC(=O)N([C@H](CC#N)Cc2ccccc2)CC1 | – | inactive: 4.82%
Cc1cccc(C)c1NC(=O)C1CCCCN1C (stereo unspecified) | – | inactive: -2.69% [at 60.1 µM]
NC(N)=NCCNS(=O)(=O)c1cccc2cnccc12 | inactive | –
Cc1nnc(NS(=O)(=O)c2ccc(N=Nc3ccc(N)nc3N)cc2)s1 | active: 79.4 µM | –
CCN(CC)CCCNc1ccc2ncn3c4ccc(O)cc4c(=O)c1c23 | active: 79.4 µM | –
O=C(NCc1ccccc1)C1(C(F)(F)F)C/C(=C\CCO)CCCO1 (stereo unspecified) | – | inactive: 19.5%
C=CCn1c(SCC(=O)c2ccc(O)c(O)c2)nnc1-c1cccc(Cl)c1 | active: 39.8 µM | –
COc1ccc(COc2cc(-c3cccc(OC)c3)nc3ccc(NC(=O)c4ccccc4)cc23)cc1 | – | inactive: -0.765%
NC(=O)Cn1c(=O)n(Cc2ccco2)c(=O)c2c3c(sc21)CCCCC3 | active: 25.1 µM | –
O=C(CC1Nc2cccc3cccc(c23)NC1=O)Nc1ccc(F)cc1 (stereo unspecified) | – | inactive: -4.37%
CC[C@H](C)[C@H](NC(=O)[C@H](CC(N)=O)NC(=O)[C@H](CCCCN)NC(=O)[C@H](Cc1ccccc1)NC(=O)[C@H](Cc1ccccc1)NC(=O)[C@H](Cc1cnc[nH]1)NC(=O)[C@@H](N)C(C)C)C(=O)N[C@H](C(=O)N[C@H](C(=O)N1CCC[C@H]1C(=O)N[C@@H](CCCN=C(N)N)C(=O)N[C@H](C(=O)N1CCC[C@H]1C(=O)O)[C@@H](C)O)[C@@H](C)O)C(C)C | – | inactive: 12% [at 60.1 µM]
CCc1ccccc1NC(=O)CC(C)n1nc(C)cc1C (stereo unspecified) | – | inactive: 36%
O=[N+]([O-])c1ccc(Cn2cc(-c3cccc(C(F)(F)F)c3)nn2)cc1 | – | inactive: -6.67%
CC(C)n1c(SCC(=O)Nc2nncs2)nnc1-c1ccco1 | active: 79.4 µM | –
O=C1NCN(c2ccccc2)C12CCN(CCCC(c1ccc(F)cc1)c1ccc(F)cc1)CC2 | inactive | –
COC(=O)C[C@H]1c2cc(F)ccc2S(=O)(=O)N1Cc1ccccc1OC | – | inactive: -16.3%
